{"source": "paper PMC6919601", "about": "“Identification of Plasmodium dipeptidyl aminopeptidase allosteric inhibitors by high throughput screening” (PLoS ONE, 2019)", "note": "Hit rate of the full screen: of about 110,000 compounds, about 230 (0.21%) showed an effect of 50% or more. The list shows a part of the results.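 Also: 30 min substrate incubation versus DMSO and 10 µM JCP410 controls.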"}
{"molecular_target": "DPAP1 (Plasmodium falciparum, UniProt Q8IIJ9)", "sequence (Q8IIJ9 whole entry, looked up)": "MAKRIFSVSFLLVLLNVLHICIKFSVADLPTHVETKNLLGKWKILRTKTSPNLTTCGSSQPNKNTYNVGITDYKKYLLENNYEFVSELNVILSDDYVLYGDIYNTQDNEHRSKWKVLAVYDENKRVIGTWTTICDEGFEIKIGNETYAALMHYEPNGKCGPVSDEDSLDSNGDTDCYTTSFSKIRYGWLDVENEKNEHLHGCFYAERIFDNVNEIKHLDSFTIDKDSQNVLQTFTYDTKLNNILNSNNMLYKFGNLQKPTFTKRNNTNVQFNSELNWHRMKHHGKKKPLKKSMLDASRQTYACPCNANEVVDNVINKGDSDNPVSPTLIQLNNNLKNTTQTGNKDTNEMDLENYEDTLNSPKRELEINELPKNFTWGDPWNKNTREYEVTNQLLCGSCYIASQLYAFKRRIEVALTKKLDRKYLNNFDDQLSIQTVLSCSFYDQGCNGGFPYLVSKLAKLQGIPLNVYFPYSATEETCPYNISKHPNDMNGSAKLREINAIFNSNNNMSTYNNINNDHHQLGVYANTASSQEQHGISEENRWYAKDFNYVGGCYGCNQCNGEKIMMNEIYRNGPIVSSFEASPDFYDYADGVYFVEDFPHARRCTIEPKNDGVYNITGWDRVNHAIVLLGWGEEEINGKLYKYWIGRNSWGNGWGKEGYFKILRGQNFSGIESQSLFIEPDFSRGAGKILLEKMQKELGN", "experiment": "primary screen, percent inhibition; read by cleavage of a fluorogenic dipeptide substrate; higher = more effect of the substance", "design": "species or system P. falciparum D10 trophozoite lysates; single well", "units": {"% Inhibition @ 10 uM": "%"}}
{"smiles": "O=C(NCCc1ccccc1)c1ccccc1NS(=O)(=O)c1ccc(Cl)cc1", "% Inhibition @ 10 uM": -3.16}
{"smiles": "CCOC(=O)C1=C(CN2CCC(Cc3ccccc3)CC2)NC(=O)NC1c1ccc(Cl)cc1", "note": "(stereo not shown)", "% Inhibition @ 10 uM": -4.69}
{"smiles": "CCOC(=O)N1CCN(S(=O)(=O)c2ccc(-c3cc(C)no3)cc2)CC1", "% Inhibition @ 10 uM": -2.56}
{"smiles": "CC1=C(C)C[C@H](C(=O)O)[C@@H](C(=O)O)C1", "% Inhibition @ 10 uM": 1.63}
{"smiles": "Nc1nnc(-c2cc(-c3ccc(O)cc3)on2)o1", "% Inhibition @ 10 uM": -3.53}
{"smiles": "NC(=O)Nc1ccccc1C(=O)NCc1ccccc1", "% Inhibition @ 10 uM": -4.52}
{"smiles": "Cc1cc2oc(C(=O)NC3CCS(=O)(=O)C3)c(C)c2cc1C", "note": "(stereo not shown)", "% Inhibition @ 10 uM": -4.66}
{"smiles": "CCC1CCCCN1Cc1ccc(CNC(=O)c2cc3ccc4cccnc4c3[nH]2)o1", "note": "(stereo not shown)", "% Inhibition @ 10 uM": 1.75}
{"smiles": "O=C(CN(c1ccccc1)S(=O)(=O)c1ccccc1)N1CCc2ccccc2C1", "% Inhibition @ 10 uM": -3.19}
{"smiles": "C=CCOc1ccc(-n2c(C)cc(/C=C3\\NC(=O)NC3=O)c2C)cc1", "% Inhibition @ 10 uM": 4.11}
{"smiles": "CC[C@H](NC(=O)[C@H](Cc1nccs1)NC(=O)c1ccc(-c2ccccc2Cl)cc1)C(=O)c1nc2ccccc2o1", "% Inhibition @ 10 uM": -0.207}
{"smiles": "CC(C)(C)OC(=O)N1CCC(C(=O)N[C@@H](Cc2ccc3ccccc3c2)C(=O)N[C@@H](CCc2ccccc2)C(=O)CO)CC1", "% Inhibition @ 10 uM": -0.778}
{"smiles": "CCC(C)NC(=O)Cn1nc(C)n2c(cc3cc(F)ccc32)c1=O", "note": "(stereo not shown)", "% Inhibition @ 10 uM": -1.7}
{"smiles": "O=C(C(c1ccccc1)c1ccccc1)N1CCN(Cc2ccncc2)CC1", "% Inhibition @ 10 uM": -8.33}
{"smiles": "CCOCCCNC(=O)c1ccc(CSc2nc3ccncc3n2Cc2cccc(C)c2)cc1", "% Inhibition @ 10 uM": -0.637}
{"smiles": "CCCCOC(=O)c1sc2nc3c(cc2c1N)C(=O)CC(C)(C)C3", "% Inhibition @ 10 uM": 0.343}
{"smiles": "CCS(=O)(=O)N1CCC2(CC1)OC(=O)C(C)=C2C(=O)NCCOC", "% Inhibition @ 10 uM": -0.0121}
{"smiles": "Clc1ccc(C2=NCCn3cccc32)cc1Cl", "% Inhibition @ 10 uM": -4.61}
{"smiles": "CN(C)CCN(Cc1ccco1)C(=O)Cn1nc(Cc2ccncc2)c2ccccc2c1=O", "% Inhibition @ 10 uM": 5.09}
{"smiles": "c1cncc(CNc2ncnc3sc4c(c23)CCC4)c1", "% Inhibition @ 10 uM": -2.29}
{"smiles": "Cc1c(NC(=O)c2ccc(C(=O)Nc3c(C)n(C)n(-c4ccccc4)c3=O)cc2)c(=O)n(-c2ccccc2)n1C", "% Inhibition @ 10 uM": -1.77}
{"smiles": "Cc1ccc(CSc2nc3ccncc3n2CC(=O)N(C)C2CCCCC2)cc1", "% Inhibition @ 10 uM": -6.01}
{"smiles": "CC(C)(C)c1ccc(C(=O)Nc2ccc(O)cc2)cc1", "% Inhibition @ 10 uM": -0.545}
{"smiles": "O=C(COc1ccc(Br)cc1Br)Nc1cccc(Cl)c1", "% Inhibition @ 10 uM": 4.12}
{"smiles": "O=C1NC(=S)N(c2cccc(Cl)c2)C(=O)/C1=C/c1ccco1", "% Inhibition @ 10 uM": 6.66}
{"smiles": "O=C(Nc1ccc(Cl)cc1)c1cc2n(n1)C(C(F)(F)F)CC(c1cccs1)N2", "note": "(stereo not shown)", "% Inhibition @ 10 uM": -2.6}
{"smiles": "COc1ccc(OC)c(C2CC(=O)N=C(N)N2)c1", "note": "(stereo not shown)", "% Inhibition @ 10 uM": -2.41}
{"smiles": "Cc1oc(-c2ccccc2)cc1C(=O)O", "% Inhibition @ 10 uM": 2.65}
{"smiles": "Cc1cccc(/C=C2/NC(=O)N(CC(=O)Nc3cccc(C)c3)C2=O)c1", "% Inhibition @ 10 uM": -9.2}
{"smiles": "COCCNC(=O)CCCN1C(=O)CSc2nc(C)cc(C)c21", "% Inhibition @ 10 uM": 1.03}
{"smiles": "COc1ccc(S(=O)(=O)N2CCN(Cc3ccccc3Br)CC2)cc1", "% Inhibition @ 10 uM": -2.34}
{"smiles": "COC(=O)c1c(N)sc(C)c1-c1ccc(C)cc1", "% Inhibition @ 10 uM": -4.82}
{"smiles": "Clc1ccc(Nc2nc(Cl)nc(NC3CCCCC3)n2)cc1", "% Inhibition @ 10 uM": 0.467}
{"smiles": "CC(C)(C)NC(=O)c1sccc1C(=O)O", "% Inhibition @ 10 uM": -0.469}
{"smiles": "CSc1ncc(Cl)c(C(=O)Nc2nc3ccc(Cl)cc3s2)n1", "% Inhibition @ 10 uM": 2.19}
{"smiles": "O=C(c1cc2c(Cl)ccc3c2n1CCO3)N1CCc2ccccc2C1", "% Inhibition @ 10 uM": 2.65}
{"smiles": "O=C(NCCN1CCOCC1)c1sc2cc(Cl)ccc2c1Cl", "% Inhibition @ 10 uM": 8.97}
{"smiles": "O=C(O)C1C2CC3CC(C2)CC1(n1ncc(N2CCOCC2)c(Cl)c1=O)C3", "note": "(stereo not shown)", "% Inhibition @ 10 uM": 4.33}
{"smiles": "CCOc1cc(C2C(C#N)=C(N)Oc3[nH]nc(-c4ccc5c(c4)OCO5)c32)ccc1O", "note": "(stereo not shown)", "% Inhibition @ 10 uM": -7.3}
{"smiles": "COc1cc(OC)nc(NC(=O)CSc2nc3ccccc3s2)n1", "% Inhibition @ 10 uM": -2.16}
{"smiles": "Cc1nc2nc(C)c(CCC(=O)NCCc3c[nH]c4ccccc34)c(C)n2n1", "% Inhibition @ 10 uM": -2.25}
{"smiles": "Nc1c(-c2nc(-c3ccc4c(c3)OCO4)no2)nnn1-c1cccc(C(F)(F)F)c1", "% Inhibition @ 10 uM": 4.95}
{"smiles": "COCCNC(=O)c1ccc(CS(=O)(=O)c2ccc(Cl)cc2)o1", "% Inhibition @ 10 uM": 2.35}
{"smiles": "CCCCSC1=C(C#N)C(c2ccccc2Cl)CC(=O)N1", "note": "(stereo not shown)", "% Inhibition @ 10 uM": 0.777}
{"smiles": "O=C(O)C1NCCC1c1ccccc1", "note": "(stereo not shown)", "% Inhibition @ 10 uM": -1.66}
{"smiles": "CN1C2CCC1CC(NC(=O)N1c3ccccc3CCc3ccccc31)C2", "note": "(stereo not shown)", "% Inhibition @ 10 uM": 0.986}
{"smiles": "CCn1cc(C(=O)NCCOC)c2cc(OC)c(OC)cc2c1=O", "% Inhibition @ 10 uM": -4.86}
{"smiles": "O=C(Nc1cccc2c1C(=O)c1ccccc1C2=O)c1cccc(Br)c1", "% Inhibition @ 10 uM": 0.317}
{"smiles": "CN(C)CCCNC(=S)N(Cc1ccccc1)Cc1ccccc1", "% Inhibition @ 10 uM": 5.23}
